Like-named read-outs stand apart in the source and are kept apart here.
B1: hTβRII (G4S)6-hFc (Fc fusion)
chain: GATIPPHVQKSDVEMEAQKDEIICPSCNRTAHPLRHINNDMIVTDNNGAVKFPQLCKFCDVRFSTCDNQKSCMSNCSITSICEKPQEVCVAVWRKNDENITLETVCHDPKLPYHDFILEDAASPKCIMKEKKKPGETFFMCSCSSDECNDNIIFSEEYNTSNPDTGGGGSGGGGSGGGGSGGGGSGGGGSGGG[not shown - human IgG1 Fc and a few adjoining residues]
notes: Tested only in the reporter gene assay
B2: hTβRII-hFc (Fc fusion)
chain: GATIPPHVQKSDVEMEAQKDEIICPSCNRTAHPLRHINNDMIVTDNNGAVKFPQLCKFCDVRFSTCDNQKSCMSNCSITSICEKPQEVCVAVWRKNDENITLETVCHDPKLPYHDFILEDAASPKCIMKEKKKPGETFFMCSCSSDECNDNIIFSEEYNTSNPDTG[not shown - human IgG1 Fc and a few adjoining residues]
notes: Expressed in CHO cells; also called TβRII-Fc fusion protein with TGGG linker
B3: hTβRII (G4S)2-hFc (Fc fusion)
chain: GATIPPHVQKSDVEMEAQKDEIICPSCNRTAHPLRHINNDMIVTDNNGAVKFPQLCKFCDVRFSTCDNQKSCMSNCSITSICEKPQEVCVAVWRKNDENITLETVCHDPKLPYHDFILEDAASPKCIMKEKKKPGETFFMCSCSSDECNDNIIFSEEYNTSNPDTGGGGSGGG[not shown - human IgG1 Fc and a few adjoining residues]
notes: Expressed in CHO cells; The leader is removed as for m1
B4: hTβRII (G4S)3-hFc (Fc fusion)
chain: GATIPPHVQKSDVEMEAQKDEIICPSCNRTAHPLRHINNDMIVTDNNGAVKFPQLCKFCDVRFSTCDNQKSCMSNCSITSICEKPQEVCVAVWRKNDENITLETVCHDPKLPYHDFILEDAASPKCIMKEKKKPGETFFMCSCSSDECNDNIIFSEEYNTSNPDTGGGGSGGGGSGGG[not shown - human IgG1 Fc and a few adjoining residues]
notes: as for B3
B5: hTβRII (G4S)4-hFc (Fc fusion)
chain: GATIPPHVQKSDVEMEAQKDEIICPSCNRTAHPLRHINNDMIVTDNNGAVKFPQLCKFCDVRFSTCDNQKSCMSNCSITSICEKPQEVCVAVWRKNDENITLETVCHDPKLPYHDFILEDAASPKCIMKEKKKPGETFFMCSCSSDECNDNIIFSEEYNTSNPDTGGGGSGGGGSGGGGSGGG[not shown - human IgG1 Fc and a few adjoining residues]
B6: hTβRII extended hinge-hFc (Fc fusion)
chain: GATIPPHVQKSDVEMEAQKDEIICPSCNRTAHPLRHINNDMIVTDNNGAVKFPQLCKFCDVRFSTCDNQKSCMSNCSITSICEKPQEVCVAVWRKNDENITLETVCHDPKLPYHDFILEDAASPKCIMKEKKKPGETFFMCSCSSDECNDNIIFSEEYNTSNPDTGGG[not shown - human IgG1 Fc]
notes: as for B3
B7: hTβRII (G4S)5-hFc (Fc fusion)
chain: GATIPPHVQKSDVEMEAQKDEIICPSCNRTAHPLRHINNDMIVTDNNGAVKFPQLCKFCDVRFSTCDNQKSCMSNCSITSICEKPQEVCVAVWRKNDENITLETVCHDPKLPYHDFILEDAASPKCIMKEKKKPGETFFMCSCSSDECNDNIIFSEEYNTSNPDTGGGGSGGGGSGGGGSGGGGSGGG[not shown - human IgG1 Fc and a few adjoining residues]
notes: Expressed in CHO cells; The leader is removed as for m1; Tested only in the reporter gene assay

Experiments:
TGFβ1 [1] = target: T1, TGFβ1 (human, UniProt P01137 part only); assay: cell-based or functional assay
TGFβ1 [2] = target: T1, TGFβ1; assay: cell-based or functional assay; remark: listed apart in the source
T1 sequence (P01137 279-390 limits assumed): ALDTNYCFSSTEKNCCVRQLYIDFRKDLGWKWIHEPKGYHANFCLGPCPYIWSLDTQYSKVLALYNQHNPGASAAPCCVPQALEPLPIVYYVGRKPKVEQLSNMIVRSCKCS

TGFβ1 [3] = target: T1, TGFβ1; assay: Biacore (surface plasmon resonance)
TGFβ1 [4] = target: T1, TGFβ1; assay: cell-based or functional assay; remark: listed apart in the source

Row | Binder | IC50 (read off the curve) (TGFβ1 [1]) [ng/mL] | IC50 (A549 CAGA12 luciferase reporter) (TGFβ1 [2]) [nM] | Kd (TGFβ1 [3]) [nM] | IC50 (A549 CAGA12 luciferase reporter) (TGFβ1 [4]) [nM]
1 | B1 | ~2 | 0.02 | 0.0038 | –
2 | B2 | – | – | – | 7.69
3 | B3 | – | – | – | 1.12
4 | B4 | – | – | – | 0.22
5 | B5 | – | – | – | 0.07
6 | B6 | – | – | – | 5.67
7 | B7 | ~3 | 0.03 | 0.0088 | –

Reference: patent US20220372107A1 (ACCELERON PHARMA, published 2022)
